Results on 219 sequences are retold here after publication PMC6212790.

The other results are listed elsewhere or left out. At the low end of the ranking the order means little.

In the experiment the target is T1, GST-Rok-C97-191 (UniProt O34857).
T1 sequence: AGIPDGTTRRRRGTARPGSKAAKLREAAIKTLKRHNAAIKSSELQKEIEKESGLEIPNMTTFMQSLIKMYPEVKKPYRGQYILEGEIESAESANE
In words: protein binding microarray.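 Further: rank score from −0.5 (least bound) to 0.5 (best bound).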 The conditions noted are these: Rok is a gene silencer of Bacillus subtilis; high values mean tight binding; most listed sequences are background and not binding sites; double strand, one strand shown.
ACGTTGGG registered a binding signal of -0.0548 E-score.
Under GCTCGGAC stands -0.341 E-score; under GATTAATA, 0.268 E-score; under CTGCAATA, -0.00883 E-score.
The figure for ACCCGAGG is -0.144 E-score.
Under CCTCGCAA stands -0.0698 E-score; under AACAATGC, -0.00209 E-score; under ATGATAAG, 0.09 E-score.
GCAAGTTA: the binding signal was found to be 0.187 E-score.
Under CACCCGCA stands -0.149 E-score.
The sequence ATTAAATC came in with a binding signal of 0.102 E-score.
Under CCGACAGG stands -0.273 E-score.
Under GCATTCTA stands 0.105 E-score; under CAGTCATA, 0.0934 E-score.
The figure for CGTGTTCC is -0.18 E-score; for ACATAGGT it is 0.171 E-score; for CTGCAAGA it is -0.151 E-score.
ACGTTATC showed a binding signal of 0.265 E-score.
The figure for ACAGGAGA is -0.199 E-score; for AAGATTCT it is 0.206 E-score.
The figure for AAAGCACG is -0.0701 E-score.
The figure for CCAGTAGA is 0.176 E-score.
As to GACAACTA, the binding signal turned out to be 0.295 E-score.
For CCGGCACC, the binding signal was -0.324 E-score.
The sequence ACATGGCC gave a binding signal of -0.116 E-score.
Under CAATCGTA stands 0.0615 E-score; under ATTGAAGC, 0.0717 E-score; under CCCACCCG, -0.154 E-score.
The figure for GCTACTAA is 0.229 E-score; for AAAGAGTC it is -0.188 E-score.
The figure for TCTATCAA is 0.283 E-score.
For the sequence AACTGCTG, the binding signal is -0.0468 E-score.
Under CCCTGCCC stands -0.359 E-score.
The figure for CGCTGTTA is 0.0922 E-score.
Under GGCTTTGA stands -0.27 E-score; under AGAACGAG, -0.224 E-score.
For AGTGCTGA, the binding signal was -0.243 E-score.
CCAATGGC registered a binding signal of -0.09 E-score.
Under AAAACTGG stands 0.0097 E-score.
The figure for CCGCGCTA is 0.0263 E-score; for CAGCTTCA it is -0.133 E-score; for CGCTAGAG it is -0.0232 E-score.
Sequence AGAACCCG gave a binding signal of -0.0881 E-score.
For the sequence ATCCTCTG, the binding signal is -0.0465 E-score.
Under AGCTAGGC stands -0.111 E-score; under ATCTATCA, 0.451 E-score; under AATACATC, 0.303 E-score.
As for AATAGTCG, the binding signal was -0.0896 E-score.
Under GCCGATCA stands -0.154 E-score; under CTATGACC, -0.00424 E-score; under ACCCTGGG, -0.258 E-score.
The sequence GATCATGC came in with a binding signal of -0.111 E-score.
The figure for AACCAGTG is -0.05 E-score; for AAGCAGGC it is -0.299 E-score.
Under GAGATACA stands 0.165 E-score; under CAAACCAG, -0.17 E-score.
The figure for CAGGCCTC is -0.336 E-score; for AGGCCAGC it is -0.338 E-score.
With ACAAGACT, the binding signal is -0.0977 E-score.
Under AGCAGATG stands 0.175 E-score.
The figure for CCTGGGAA is -0.112 E-score; for CACTGTAC it is 0.044 E-score; for ACACTCTG it is -0.0681 E-score.
Under ACTGCCCT stands -0.164 E-score.
With CCTTTTCC, the binding signal was -0.198 E-score.
The figure for CAAGGACG is -0.244 E-score; for GCCAGTGA it is -0.203 E-score; for GCTCGCAC it is -0.254 E-score.
Under GTCGATCA stands -0.0345 E-score.
The figure for AGTGACAA is 0.155 E-score.
As for CTAACGTC, the binding signal is 0.0592 E-score.
Sequence CCATTGTA gave a binding signal of 0.192 E-score.
Under ACTAATAT stands 0.342 E-score; under ACGGCGCG, -0.12 E-score.
Under AGTCCGAC stands 0.0436 E-score; under CAAGGTAG, 0.0703 E-score.
Under CCTGCCAG stands -0.296 E-score; under CAAGTCCA, -0.0464 E-score.
On to CGCCCGCG, for which the binding signal was -0.254 E-score.
The figure for AGCGACAC is -0.0888 E-score; for GCGGCGAA it is 0.0285 E-score; for TCCGAAGA it is -0.0517 E-score.
Under CAATCGCA stands 0.0441 E-score.
As to TCTACACA, the binding signal came out at 0.297 E-score.
GGCAAACC: the binding signal came out at 0.0213 E-score.
The sequence AAAGCTGT showed a binding signal of 0.147 E-score.
The figure for AGTGGCTC is -0.159 E-score; for CCACCCCA it is -0.195 E-score; for GCGATTCC it is -0.0362 E-score.
The figure for CAGACGTA is 0.0474 E-score; for AACACAGG it is -0.202 E-score.
The figure for CCCTAGGC is -0.264 E-score; for TAAAGCTA it is 0.232 E-score; for AAGCTGAG it is -0.294 E-score.
In turn, ACGTTGAT yielded a binding signal of 0.0039 E-score.
The figure for AACGATGA is -0.0484 E-score; for TAGGGTAA it is 0.0713 E-score.
The figure for CTGAGTGC is -0.18 E-score.
The sequence GGCTAGAC gave a binding signal of -0.152 E-score.
Under ATACGTAG stands 0.25 E-score; under ATACTAGA, 0.305 E-score; under CCACCTGC, -0.193 E-score.
Under TACATGAA stands 0.0723 E-score; under CAATTTAC, 0.357 E-score.
The figure for ATGGTTTC is -0.0722 E-score; for AGTGGCCC it is -0.292 E-score; for GTCGAAAA it is 0.174 E-score.
As for GCGGAAAC, the binding signal stood at 0.0598 E-score.
The figure for TCCTAGAA is 0.00595 E-score.
Under ATACTCCC stands 0.0875 E-score; under ACGATACT, 0.17 E-score.
In turn, CGTTTTCA returned a binding signal of -0.0447 E-score.
Under TACTCATA stands 0.176 E-score; under ACGGCGTG, -0.163 E-score.
The figure for GAAGCGGA is -0.239 E-score; for GCCGTCAC it is -0.0373 E-score; for TAGATATA it is 0.359 E-score.
The figure for AAGCTTCG is -0.183 E-score; for GGAAATAC it is 0.233 E-score; for GAACTTCA it is -0.0423 E-score.
Regarding AAGATGAC, the binding signal is -0.0894 E-score.
CTCAACCC yielded a binding signal of -0.181 E-score.
Under AATCTTCA stands 0.0725 E-score.
Under GCCCGCGC stands -0.345 E-score.
CGCACGGC came in with a binding signal of -0.148 E-score.
Regarding CCGGCGAG, the binding signal is -0.23 E-score.
For the sequence CTGGGCAC, the binding signal is -0.294 E-score.
Under CAATATAC stands 0.243 E-score; under ACGGCTAA, -0.0504 E-score.
The figure for AGCAACCT is 0.019 E-score.
The figure for CTTTTAGC is 0.14 E-score.
For the sequence TAGGAACA, the binding signal turned out to be 0.214 E-score.
The figure for TAGAAAAA is 0.297 E-score.
CCCGTGAC returned a binding signal of -0.222 E-score.
In turn, AACACGCT had a binding signal of 0.0618 E-score.
The figure for AAGAGAGC is -0.136 E-score; for GGCATAAA it is -0.0586 E-score; for TACGCCTA it is 0.0237 E-score.
Under ACTGGTGC stands -0.0059 E-score; under ATCACTCC, 0.0289 E-score; under AGTGCCCA, -0.181 E-score.
Under AGACGGAG stands -0.289 E-score; under ATGGAATG, 0.149 E-score; under TAATGGAA, 0.0153 E-score.
With AAAACCCT, the binding signal is -0.0859 E-score.
The figure for CTATCGCC is -0.0268 E-score; for AGTTAGTG it is 0.0734 E-score.
In the case of AGTTAGCG, the binding signal came out at 0.0457 E-score.
The figure for CCCTCACA is -0.104 E-score.
Regarding AAACTATG, the binding signal turned out to be 0.229 E-score.
Under ATCGTATA stands 0.223 E-score.
Turning to GGGAAGCA, the binding signal was -0.176 E-score.
Under GGGACACC stands -0.159 E-score; under CTTGTAGA, 0.123 E-score; under TACGGACA, 0.0643 E-score.
As for AATTTCTG, the binding signal worked out at 0.128 E-score.
The figure for CACTTCAA is -0.0752 E-score; for AAATGCCC it is 0.00515 E-score; for CGTAAGCC it is -0.222 E-score.
The figure for CGCAGAAA is 0.0836 E-score.
Under AGTTGGGC stands -0.077 E-score; under AATTGCGT, 0.307 E-score; under AGAACATC, 0.04 E-score.
As for CAATTCTA, the binding signal was 0.287 E-score.
The figure for CCCCACGA is -0.186 E-score.
The sequence AAAAGTCT gave a binding signal of 0.0913 E-score.
Under AGCACGTG stands -0.0267 E-score.
Under CGGGCTTA stands -0.148 E-score.
Under AACGTTAT stands 0.182 E-score.
GAAGTCGA had a binding signal of -0.0325 E-score.
The figure for ATTCGTCG is 0.172 E-score.
The figure for CTATATGC is 0.209 E-score; for ATACACCA it is 0.144 E-score.
The figure for AAAACTTA is 0.256 E-score.
CGACAAAG: the binding signal was -0.243 E-score.
In turn, CATGCAAC registered a binding signal of 0.0519 E-score.
The figure for CACGTGGC is -0.216 E-score; for CGGCGATC it is -0.13 E-score; for AGACATCC it is -0.249 E-score.
GTATGCAA displayed a binding signal of -0.0479 E-score.
On to ACACCAAC, for which the binding signal turned out to be 0.0171 E-score.
The figure for ACAGCCTC is -0.165 E-score; for ACCGAGGC it is -0.249 E-score.
As for ATACGCGC, the binding signal turned out to be 0.103 E-score.
The figure for AGCAAAAT is 0.25 E-score.
The figure for GGATTCGA is -0.129 E-score.
For ATTTCCCG, the binding signal is 0.119 E-score.
Under CCATGTCC stands -0.0296 E-score; under ACCCGACC, -0.143 E-score.
For the sequence ATCCGAAC, the binding signal is -0.127 E-score.
With CAACCATC, the binding signal was -0.0304 E-score.
Under CGAAAGCG stands -0.0246 E-score.
The figure for CGCTTTTA is 0.0322 E-score; for CCGAACTC it is 0.0371 E-score.
Under CCGTGTGC stands -0.184 E-score; under ACAGGACC, 0.0462 E-score.
GAGTCGTA: the binding signal came to 0.0563 E-score.
Under AATATCAT stands 0.135 E-score; under CGAGGGCA, -0.364 E-score; under ACTCCTTA, 0.00627 E-score.
The figure for CAGTAACG is 0.106 E-score; for CCGAACAA it is -0.187 E-score.
Under CCCTTCGG stands -0.266 E-score.
Regarding GCCTACTA, the binding signal was 0.229 E-score.
Under GATGGCGC stands -0.182 E-score; under ATCGCCAC, -0.0423 E-score; under TATGTTAA, 0.23 E-score.
Consider CAGTGTTC, for which the binding signal is -0.0565 E-score.
Under ACACGGAT stands 0.0931 E-score.
The figure for ACGGCCTG is -0.0541 E-score.
AACAGACT had a binding signal of -0.134 E-score.
Under AGGTAGAT stands 0.36 E-score; under CAGCCGAC, -0.267 E-score; under AGTTCCCA, -0.0242 E-score.
The figure for ATTATATC is 0.384 E-score; for AACTTCGT it is -0.0253 E-score.
Sequence GCATTCCC yielded a binding signal of -0.105 E-score.
Under TAACGCAA stands 0.0874 E-score.
The figure for GCTATTCA is 0.00412 E-score.
